# Data as given in PubChem BioAssay AID686971 (National Center for Advancing Translational Sciences (NCATS), 2013).
# Hit rate of the full screen: of about 360,000 compounds, about 7,500 (2.1%) were called active. Inconclusive means that the source gave no clear call. Such entries were picked first, then a sample of the others. The call rests on the fitted dose curve; in most records, active means well fitted cell-killing curve with a large enough effect; inconclusive means small, poorly fitted or top-dose-only effect, or effect the other way, or another doubt; inactive means no such curve, though single readings can be large or run the other way. Potencies of inconclusive entries are left out as doubtful fits.
# Assay: qHTS for induction of synthetic lethality in tumor cells producing 2HG: qHTS for the HT-1080-IDH1KD cell line
# Details: HT-1080 IDH1 knockdown viability, ATP luminescence, 48 h; series mostly up to 46.1 µM
# Summary of the method: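 Assay cells: HT-1080 with IDH1 knockdown, 750 per well, RPMI/5% FBS. Exposure: 48 h at 37 °C following 2 h pre-incubation. Read: CellTiter-Glo luminescence; fitted concentration-response, curve class assigned.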
# Potency means the concentration at half of the fitted maximal effect; tags describe the fitted curve by direction and shape.
row,Compound,Potency
1,CN(CCCNC(=O)CSc1cc(=O)n(C)c2cc(Cl)ccc12)Cc1ccccc1,active: 20.6 µM
2,CN1CCN(C2Cc3cc(Cl)ccc3Sc3cc(F)ccc32)CC1 (stereo not drawn),"inconclusive [cytotoxic, single point]"
3,CC(OC(=O)c1cc(S(=O)(=O)N(C)C)ccc1N1CCCC1)C(=O)NCc1ccccc1 (stereo not drawn),inactive
4,COc1cccc(C(=O)NCCS(=O)(=O)NCCc2ccc(OC)c(OC)c2)c1,inactive
5,COc1ccccc1NC(=O)c1ccc(-n2ccnc2)c([N+](=O)[O-])c1,inactive
6,COc1ccc2c3c(cccc13)C(=O)N(O)C2=O,active: 20.6 µM
7,COc1ccc(C2/C=C\CN(S(=O)(=O)c3ccc(C)cc3)CC(=O)N2Cc2cccc(F)c2)cc1 (stereo not drawn),inactive
8,COc1cc2c(cc1OC)C(=O)N1[C@H]3c4cc(Cl)ccc4OC[C@@H]3[C@H](c3ccccc3)[C@]1(C)C(=O)N2,"inconclusive [cytotoxic, full curve]"
9,c1ccc(COc2cccc(-c3cc4nc(NCCN5CCOCC5)ccn4n3)c2)cc1,"inconclusive [cytotoxic, single point]"
10,CC(=O)N1CCN(c2ccccc2NC(=O)COc2ccc(Br)cc2)CC1,"inconclusive [cytotoxic, single point]"
11,CC(C)(C)c1ccc(Cn2nnc3c(=O)[nH]c(C4CCCN(C(=O)c5cccs5)C4)nc32)cc1 (stereo not drawn),"inconclusive [cytotoxic, single point]"
12,COc1ccc(-c2nc3c(C)cc(Br)cn3c2Cc2ccccc2)cc1OC,"inconclusive [cytotoxic, single point]"
13,COc1ccc(O)c(/C=N/NC(=O)c2ccc(CSc3nc(C)cc(C)n3)cc2)c1,"inconclusive [cytotoxic, full curve]"
14,COc1cc(S(=O)(=O)N2CCOCC2)ccc1NC(=O)COC(=O)CC12CC3CC(CC(C3)C1)C2,inactive
15,CC(C)NC(=O)Nc1cccc2c1O[C@H](CN(C)C(=O)NC1CCCCC1)[C@@H](C)CN([C@H](C)CO)C2=O,inactive
16,CC(=O)c1ccc(Nc2cc(C)nc3c(C)cc(C)cc23)cc1,active: 8.2 µM
17,CCOC(=O)c1c(CSCc2ccccc2)oc2ccc(O)c(CN(C)C)c12,active: 18.4 µM
18,Cn1c2ccccc2n2c(=O)c(=O)n(CC(=O)c3ccc(Cl)cc3)nc12,inactive
19,O=C(CNS(=O)(=O)c1ccc([N+](=O)[O-])cc1)N/N=C/c1ccc(O)cc1O,"inconclusive [cytotoxic, single point]"

row,Compound,Potency
1,CC(Sc1nc(N)cc(=O)[nH]1)C(=O)Nc1sc2c(c1C#N)CCCC2 (stereo not drawn),"inconclusive [cytotoxic, partial curve]"
2,Cc1ccc(N=Cc2c(C)[nH]n(-c3nc4ccccc4[nH]3)c2=O)cc1,active: 3.26 µM
3,CCCCCC(=O)NNC(=S)NC(=O)c1ccccc1[N+](=O)[O-],"inconclusive [cytotoxic, single point]"
4,COc1ccc(NC(=O)Nc2cc(NC(=O)Nc3ccc(OC)cc3)c(C)nc2C)cc1,inactive
5,Cn1c(=O)n(C)c2cc(/C=N/NC(=O)c3ccc(Cl)cc3)ccc21,"inconclusive [cytotoxic, single point]"
6,CCNc1ccc(S(=O)(=O)N2CCOCC2)cc1NCC(=O)Nc1cccc(Br)c1,inactive
7,COc1cc2nc(C3CC3)n(NC(=O)c3ccc(Cl)cc3)c(=O)c2cc1OC,"inconclusive [cytotoxic, single point]"
8,N=c1c2c(n(Cc3ccccc3)c3c1CCC3)CCC2,"inconclusive [cytotoxic, single point]"
9,COc1ccc(C2Nc3ccccc3C(=O)N2Cc2ccco2)cc1COc1ccc(F)cc1 (stereo not drawn),inactive
10,CCOc1ccc(-c2c(C(=O)N/N=C/c3ccsc3)nnn2-c2nonc2N)cc1,"inconclusive [cytotoxic, single point]"
11,Cc1ccc(S(=O)(=O)N2CCN(C(=O)CCC(=O)NCc3ccc(F)cc3)CC2)cc1,inactive
12,COc1ccc(N2C(=O)CC(Sc3nc(C)c4c(n3)CCCC4)C2=O)cc1 (stereo not drawn),"inconclusive [cytotoxic, single point]"
13,COc1ccc(NC(C)=O)cc1S(=O)(=O)NC1CCSc2ccccc21 (stereo not drawn),inactive
14,CCC(C)Nc1nc(N)c([N+](=O)[O-])c(Nc2cc(OC)ccc2OC)n1 (stereo not drawn),"inconclusive [cytotoxic, partial curve]"
15,Cc1cc(N2CCN(C)CC2)nc2ccc(NC(=S)NCc3cccs3)cc12,active: 23.1 µM
16,COc1cc(Nc2ccc(C)cc2)c([N+](=O)[O-])nc1[N+](=O)[O-],active: 3.16 µM
17,CC(CCCN(C)C)C(Cc1ccccc1)c1ccccc1 (stereo not drawn),active: 16.4 µM
18,CSc1ccc(NC(=O)C2(C)CCN2C(=O)Cc2ccc(C(C)(C)C)cc2)cc1 (stereo not drawn),"inconclusive [cytotoxic, partial curve]"
19,Cc1nn(-c2ccccc2)nc1CNC(=O)CC(C)(C)C,inactive
